Laboratory results published in PubChem BioAssay AID686978 (National Center for Advancing Translational Sciences (NCATS), 2013).
Out of some 420,000 compounds screened, about 64,000 (15%) were called active. This list was built around the results that the source calls inconclusive (neither active nor inactive); the mix of calls is not that of the screen. The call rests on the fitted dose curve; in most records, active means well fitted inhibition curve with a large enough effect; inconclusive means small, poorly fitted or top-dose-only effect; inactive means flat fitted curve, though single readings scatter. No potency is given beside an inconclusive call; the fits are too rough.

test: qHTS for Inhibitors of human tyrosyl-DNA phosphodiesterase 1 (TDP1): qHTS in cells in absence of CPT; conditions: DT40 Tdp1-/- hTDP1 cells, no CPT, ATP luminescence, 48 h; series mostly up to 46.2 µM; further: nearly all actives have a fitted effect of over 55% in size
Outline: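 Stably hTDP1-transfected Tdp1-null chicken DT40 cells were treated with library compounds minus camptothecin and grown for at least 48 hr at 37 °C, after which cellular ATP was quantified by luminescence.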
Potency means the concentration at half of the fitted maximal effect; tags describe the fitted curve by direction and shape.

SMILES	Potency
COc1ccc(C(C)(O)c2nc(-c3cccc(O)c3)cs2)cc1 (centres undefined)	active: 23.1 µM
CN1CCC(NC(=O)Nc2ccc(Br)cc2)CC1	inconclusive [inhibitor, single point]
Cc1cc(N2CCOCC2)nc2ccc(NC(=S)NC(C)C)cc12	inconclusive [inhibitor, single point]
COc1ccc(Nc2cc(Cl)ccc2C(=O)O)cn1	inactive
CN(C)S(=O)(=O)c1cccc(NC(=O)c2ccc(S(=O)(=O)N3CCCC3)cc2)c1	inconclusive [inhibitor, single point]
COc1ccccc1CN(C)c1ccc(S(=O)(=O)N2CCN(C)CC2)cn1	inconclusive [inhibitor, partial curve, poor fit]
CCCC(CCC)C(=O)Nc1cccc(-c2cn3c(n2)SCC3)c1	inconclusive [inhibitor, single point]
O=C(Nc1ccc(N=Nc2ccccc2)cc1)c1ccc(Cl)cc1Cl	inconclusive [inhibitor, single point]
Cc1cccc(NS(=O)(=O)c2cccc(C(=O)N3CCN(C/C=C/c4ccccc4)CC3)c2)c1	inconclusive [inhibitor, partial curve]
CCOc1ccc(C(=O)NC(Cc2ccccc2)C(=O)OC)cc1 (centres undefined)	inactive
Cc1cccc(OCC(=O)Nc2nnc(S(=O)(=O)N3CCc4ccccc43)s2)c1	inconclusive [inhibitor, single point]
O=C(Nc1ccc(Cl)cc1)C(NS(=O)(=O)c1cccs1)c1ccccc1 (centres undefined)	inconclusive [inhibitor, single point]
Cc1nnc(NC(=O)CSc2nnc(CCNC(=O)c3ccccc3F)n2C)s1	inactive
Cc1sc(-n2c(C)ccc2C)c(C#N)c1C	inconclusive [inhibitor, single point]
C=C1CCN([C@@H](Cc2ccccc2)C(=O)NCCCc2ccccc2)S(=O)(=O)c2ccccc21	inconclusive [inhibitor, single point]
CC(C)(C)C(=O)CN1CCN(C2c3ccccc3-c3ccccc32)CC1	inconclusive [inhibitor, single point]
CCCCCCCc1ccc(C2NC(=S)NC3=C2C(=O)c2ccccc23)cc1 (centres undefined)	inconclusive [inhibitor, single point]
Cc1ccc(-n2c(Cc3ccccc3)nnc2SCc2nc(-c3cccs3)no2)cc1C	active: 23.1 µM
CCOC(=O)c1sc2nc(C)nc(Nc3ccc(OC)c(OC)c3)c2c1C	inactive
